Measured values: the supplement of paper PMC4723716
± gives the uncertainty stated by the source. In all, about 9,900 compounds were measured (“viability index relative to DMSO control”: median about 1, lowest 2% from about 0.85 on). Some of the results follow.

The compounds below were run on Plasmodium falciparum NF54 stage V gametocytes (assay: viability index relative to DMSO control (fraction); higher = less gametocyte killing). Settings: 2.5 µM, library set: Broad Institute DOS, incubation time: 72 h.
Procedure, shortened: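 Stage V gametocytes of P. falciparum NF54 were held in serum-free screening medium at 0.75% gametocytemia and 1.25% hematocrit, 10 µl per well of a 1,536-well plate, and exposed to compound at 2.5 µM for 72 hr at 37°C under low oxygen. A 3 µl mix of 2.5 µM MitoTracker Red CMXRos with 0.13% saponin was then added for one to two hours, after which one field per well was imaged and red particles of 20–70 µm2 were counted. The viability index equals this count divided by the plate mean from wells given solvent alone.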
With `C[C@H](CO)N1C[C@H](C)[C@H](CN(C)C(=O)c2ccncc2)OCCCC[C@H](C)Oc2ccc(NS(=O)(=O)c3cccs3)cc2C1=O` the viability index was 1.11 ± 0.088.
Compound `C[C@@H]1CCCCO[C@H](CN(C)C(=O)Nc2cccc3ccccc23)[C@H](C)CN([C@@H](C)CO)C(=O)c2cc(NC(=O)CCC(F)(F)F)ccc2O1` has a viability index of 0.955 ± 0.073.
`O=C(c1cccc(F)c1)N1CCCCN2[C@H](CO)[C@@H](c3ccc(C#CC4(O)CCCC4)cc3)[C@H]2C1` was tested, and the viability index was 1.06 ± 0.025.
`C[C@H]1CN([C@@H](C)CO)S(=O)(=O)c2ccc(-c3ccc(F)cc3)cc2O[C@@H]1CN(C)Cc1ccccc1C(=O)O` showed a viability index of 0.994 ± 0.053.
`O=C1CN(S(=O)(=O)c2cccc(F)c2)C[C@@H]2[C@@H](c3ccc(C4=CCCC4)cc3)[C@H](CO)N12` showed a viability index of 0.997 ± 0.064.
`O=C(C[C@@H]1C[C@@H]2c3cc(NS(=O)(=O)c4ccc(F)cc4)ccc3O[C@@H]2[C@@H](CO)O1)NCc1cccnc1` showed a viability index of 1.147 ± 0.01.
With `Cc1ccc(S(=O)(=O)N2C[C@@H](O)COC[C@@H]3O[C@H](CC(=O)NCc4ccc5c(c4)OCO5)CC[C@H]32)cc1` the viability index was 1.01 ± 0.024.
`C[C@@H]1CN([C@@H](C)CO)C(=O)c2ccccc2-c2ccccc2CO[C@H]1CN(C)C(=O)[C@@H]1CCCN1C` showed a viability index of 1.05 ± 0.013.
`COc1ccccc1-c1ccc([C@H]2[C@@H]3CN(S(=O)(=O)c4ccc(C)cc4)C[C@H]2N3)cc1` gave a viability index of 0.958 ± 0.015.
`COc1ccccc1NC(=O)N1[C@@H](C#N)[C@H](c2ccccc2)[C@@H]1CO` was tested, and the viability index was 1.11 ± 0.056.
`Cc1ccccc1-c1ccc2c(c1)O[C@H](CN(C)C(=O)Nc1ccc(C(F)(F)F)cc1)[C@@H](C)CN([C@H](C)CO)S2(=O)=O` showed a viability index of 0.947 ± 0.068.
With `COc1ccc2c3c([C@H](CO)N(C[C@]33CCN(CC3)S(=O)(=O)c3cccc(C)c3)C(=O)Nc3ccc(F)cc3)n(C)c2c1` the viability index was 0.955 ± 0.1.
Compound `CO[C@@H]1CN(C)C(=O)c2cc(NC(=O)c3ccc4c(c3)OCO4)ccc2OC[C@H](C)N(CCC(F)(F)F)C[C@@H]1C` has a viability index of 1.13 ± 0.058.
`COC(=O)C[C@H]1CC[C@H]2[C@@H](COc3ccc(NS(=O)(=O)c4ccc(C)cc4)cc3C(=O)N2C)O1` gave a viability index of 1.114 ± 0.0014.
Compound `Cc1noc(C)c1NC(=O)N(C)C[C@@H]1OCCCC[C@@H](C)Oc2ccc(NC(=O)CCCCCC(=O)Nc3ccccc3N)cc2C(=O)N([C@H](C)CO)C[C@@H]1C` has a viability index of 1.07 ± 0.1.
Compound `CCS(=O)(=O)NCC[C@H]1CC[C@H](NS(=O)(=O)c2ccccc2C)[C@@H](CO)O1` has a viability index of 0.916 ± 0.053.
`O=C(C[C@@H]1CC[C@H]2NC[C@H](O)COC[C@@H]2O1)NCCc1ccncc1` showed a viability index of 0.983 ± 0.1.
In the case of `COc1ccc2c3c([nH]c2c1)[C@H](CO)N(C[C@]31CCN(CC2CCCCC2)CC1)S(=O)(=O)c1cn(C)cn1`, the viability index is reported as 1.062 ± 0.009.
For `COc1ccccc1S(=O)(=O)N[C@H]1C=C[C@@H](CC(=O)N2CCOCC2)O[C@@H]1CO`, the viability index was 1.1 ± 0.033.
`Cc1ccc(S(=O)(=O)Nc2ccc3c(c2)C(=O)N(C)[C@H]2CC[C@H](CC(=O)NCCc4ccncc4)O[C@@H]2CO3)cc1` was tested, and the viability index was 0.987 ± 0.017.
`C[C@@H]1CN([C@H](C)CO)C(=O)c2cccc(NS(=O)(=O)c3ccc(F)cc3)c2O[C@H]1CN(C)Cc1ccc(Cl)c(Cl)c1` showed a viability index of 0.967 ± 0.045.
`CO[C@@H]1CC[C@@H]2CCOc3c(C#N)cccc3C(=O)N(C)C[C@H](c3ccccc3)CC(=O)N(C)C[C@@H]1O2` showed a viability index of 1.046 ± 0.0064.
Work on `COc1ccc2c3c([nH]c2c1)[C@H](CO)N(C[C@]31CCN(CC1)S(C)(=O)=O)C(=O)C1CCOCC1` yielded a viability index of 1 ± 0.13.
Compound `COc1ccccc1NC(=O)N1C[C@@H](C)[C@H](OC)CN(C)C(=O)c2cc(NC(=O)c3cnccn3)ccc2OC[C@H]1C` has a viability index of 1.003 ± 0.0039.
Work on `C[C@@H]1CN([C@H](C)CO)C(=O)CCCn2cc(nn2)CO[C@H]1CN(C)Cc1ccccc1` yielded a viability index of 1.04 ± 0.033.
`CCC(=O)N(C)C[C@H]1[C@@H](c2ccc(-c3cccc(F)c3)cc2)[C@@H](CO)N1C(C)=O` gave a viability index of 0.968 ± 0.02.
`C[C@@H]1CCCCO[C@@H](CN(C)C(=O)Nc2ccc(C(F)(F)F)cc2)[C@@H](C)CN([C@H](C)CO)C(=O)c2cc(NS(=O)(=O)c3cn(C)cn3)ccc2O1` was tested, and the viability index was 1.03 ± 0.17.
In the case of `COCC(=O)N(C[C@H]1N[C@H](CO)[C@@H]1c1ccc(C2=CCCC2)cc1)C1CCCC1`, the viability index is reported as 0.924 ± 0.07.
For `C[C@H]1CN([C@@H](C)CO)C(=O)c2ccccc2-c2ccccc2CO[C@H]1CN(C)C(=O)[C@H](Cc1ccccc1)N(C)C`, the viability index was 1.03 ± 0.017.
Work on `CCS(=O)(=O)Nc1ccc2c(c1)C(=O)N(C)C[C@H](OC)[C@H](C)CN(CC1CCCCC1)[C@H](C)CO2` yielded a viability index of 0.995 ± 0.1.
`Cc1ccc(OC(=O)N(C)C[C@H]2OCc3ccccc3-c3ccccc3C(=O)N([C@H](C)CO)C[C@@H]2C)cc1` gave a viability index of 0.961 ± 0.063.
Compound `O=C(C[C@H]1CC[C@H](NC(=O)Nc2ccc(C(F)(F)F)cc2)[C@H](CO)O1)NCc1cccc(F)c1` has a viability index of 0.937 ± 0.033.
With `O=C(NCC1CC1)[C@H]1[C@H](CO)[C@H]2Cn3c(ccc(-c4ccccc4F)c3=O)[C@@H]1N2Cc1cncnc1` the viability index was 1.02 ± 0.038.
Compound `O=C(C[C@@H]1CC[C@@H]2[C@H](COC[C@H](O)CN2Cc2nccs2)O1)N1CCC(Cc2ccccc2)CC1` has a viability index of 1.04 ± 0.11.
`CO[C@@H](CN(C)Cc1cc(F)ccc1F)[C@H](C)CN(C(=O)Nc1ccc(C(F)(F)F)cc1)[C@H](C)CO` was tested, and the viability index was 1.14 ± 0.029.
With `CN(C)C(=O)C[C@H]1CC[C@H]2[C@@H](COc3ccc(NC(=O)C4CCCCC4)cc3C(=O)N2C)O1` the viability index was 1.05 ± 0.074.
Compound `CCCNC(=O)N1[C@H](C#N)[C@H](c2ccc(-c3ccccc3F)cc2)[C@@H]1CO` has a viability index of 0.911 ± 0.019.
Compound `CN(C)CC(=O)N1[C@H](C#N)[C@H](c2ccc(C#CC3CCCCC3)cc2)[C@H]1CO` has a viability index of 1 ± 0.026.
`CCS(=O)(=O)N1C[C@@]2(C1)CN(Cc1cccc(Cl)c1)[C@H](CO)c1c2c2ccc(OC)cc2n1C` showed a viability index of 0.907 ± 0.086.
For `Cc1ccc(S(=O)(=O)Nc2cccc3c2O[C@@H](CN(C)C(=O)Nc2ccc(C(F)(F)F)cc2)[C@H](C)CN([C@H](C)CO)C3=O)cc1`, the viability index was 1.08 ± 0.082.
Work on `O=C(CC1CC1)N1CC2(C1)[C@H](c1ccccc1)[C@H](CO)N2S(=O)(=O)Cc1ccccc1` yielded a viability index of 1.1 ± 0.012.
With `CNC[C@H]1OCCCC[C@H](C)Oc2ccc(NS(=O)(=O)c3ccc(F)cc3)cc2C(=O)N([C@@H](C)CO)C[C@@H]1C` the viability index was 1.08 ± 0.072.
In the case of `C[C@H]1CN([C@@H](C)CO)C(=O)CCCn2nncc2CO[C@H]1CN(C)S(=O)(=O)c1ccccc1C#N`, the viability index is reported as 1.11 ± 0.088.
With `Cc1ccccc1S(=O)(=O)N1CCCCN2[C@@H](CO)[C@H](c3ccc(C#CCN(C)C)cc3)[C@@H]2C1` the viability index was 1.02 ± 0.023.
With `CCCC#Cc1ccc([C@@H]2[C@@H](CO)N3C(=O)CN(C(=O)Nc4cccc(F)c4)C[C@@H]23)cc1` the viability index was 1.06 ± 0.013.
Work on `COCC(=O)Nc1ccc2c(c1)[C@H]1C[C@H](CC(=O)N[C@@H](C)c3ccccc3)O[C@@H](CO)[C@H]1O2` yielded a viability index of 1.038 ± 0.0089.
For `CN(C)C(=O)c1ccc(-c2ccccc2[C@@H]2[C@H](C#N)N(C(=O)C3CC3)[C@H]2CO)cc1`, the viability index was 1.07 ± 0.041.
For `N#C[C@@H]1N[C@@H](CO)[C@H]1c1ccc(C#Cc2ccccc2F)cc1`, the viability index was 1.09 ± 0.023.
`CCCNC(=O)Nc1ccc2c(c1)OC[C@H](C)N(C(=O)C1CCOCC1)C[C@@H](C)[C@H](OC)CN(C)C2=O` gave a viability index of 0.9626 ± 0.0033.
In the case of `C[C@H]1CN([C@@H](C)CO)C(=O)CCCn2nncc2CO[C@@H]1CN(C)C(=O)c1ccc(N2CCN(C)CC2)cc1`, the viability index is reported as 1.089 ± 0.0044.
Work on `COc1ccc(C#Cc2ccc([C@H]3[C@H](CO)N4C(=O)CN(C(=O)c5ccc(F)cc5)C[C@@H]34)cc2)cc1` yielded a viability index of 1.06 ± 0.036.
Compound `N#C[C@@H]1[C@H](c2ccc(C3=CCCC3)cc2)[C@@H](CO)N1C(=O)c1ccccn1` has a viability index of 1.13 ± 0.065.
`C[C@@H]1CCCCO[C@H](CN(C)C(=O)Nc2cccc3ccccc23)[C@@H](C)CN([C@@H](C)CO)C(=O)c2cc(NC(=O)CCC(F)(F)F)ccc2O1` was tested, and the viability index was 0.995 ± 0.014.
In the case of `C[C@@H]1CCCCO[C@@H](CN(C)C(=O)Nc2ccccc2)[C@H](C)CN([C@@H](C)CO)C(=O)c2cc(NC(=O)Nc3ccccc3)ccc2O1`, the viability index is reported as 1.08 ± 0.047.
With `Cc1ccc(S(=O)(=O)N2C[C@H](O)COC[C@H]3O[C@@H](CC(=O)N4CCc5ccccc5C4)CC[C@@H]32)cc1` the viability index was 1.07 ± 0.078.
Work on `CCc1cnc(N2[C@H](C#N)[C@@H](c3ccc(C#Cc4ccccc4F)cc3)[C@H]2CO)s1` yielded a viability index of 1.05 ± 0.12.
`CN(C)CC(=O)N1CC2(C1)[C@H](c1ccccc1)[C@H](CO)N2C(=O)C1CC1` was tested, and the viability index was 1.08 ± 0.026.
`O=C(CCN1CCCCC1)N[C@@H]1CC[C@@H](CC(=O)N2CCC(Cc3ccccc3)CC2)O[C@@H]1CO` showed a viability index of 0.954 ± 0.15.
`O=C(C[C@H]1CC[C@H]2[C@@H](COC[C@@H](O)CN2C(=O)Cc2ccccc2)O1)NC1Cc2ccccc2C1` gave a viability index of 1.07 ± 0.057.
`C[C@@H]1CCCCO[C@H](CN(C)C(=O)CCCN(C)C)[C@@H](C)CN([C@H](C)CO)C(=O)c2cc(NC(=O)Nc3ccc4c(c3)OCO4)ccc2O1` was tested, and the viability index was 1.05 ± 0.013.
`O=C(C[C@H]1C=C[C@H](NC(=O)Cc2cccnc2)[C@H](CO)O1)NCc1ccc2c(c1)OCO2` was tested, and the viability index was 1.11 ± 0.084.
Work on `COc1cccc(CNC(=O)C[C@H]2CC[C@H]3[C@H](COc4ccc(NC(=O)c5cccs5)cc4C(=O)N3C)O2)c1` yielded a viability index of 0.909 ± 0.067.
`OC[C@@H]1Nc2ccc(C3=CCCCC3)cc2[C@@H]2[C@H]1CCN2Cc1nccs1` was tested, and the viability index was 1.06 ± 0.059.
`COc1ccc(CN(C)C[C@H]2OCc3cnnn3CCCC(=O)N([C@@H](C)CO)C[C@H]2C)cc1` showed a viability index of 1.01 ± 0.043.
Compound `C[C@@H]1CN([C@H](C)CO)C(=O)CCCn2nncc2CO[C@H]1CN(C)C(=O)c1ccc2ccn(C)c2c1` has a viability index of 0.999 ± 0.036.
`O=C(Nc1ccc(F)cc1)N1[C@@H](CO)[C@@H]2c3ccccc3NC[C@@H]21` gave a viability index of 0.982 ± 0.079.
`COc1ccc(S(=O)(=O)N2CC[C@@H]3[C@H]2c2cc(Br)ccc2N[C@@H]3CO)cc1` gave a viability index of 1.07 ± 0.097.
`CN1C(=O)c2cc(NC(=O)NCc3ccccc3)ccc2OC[C@H]2O[C@@H](CC(=O)NCC3CCCCC3)CC[C@H]21` was tested, and the viability index was 1.14 ± 0.052.
